In all, about 33,000 sequences were measured (“E-score (-0.5 to 0.5)”: median about -0.053, highest 2% from about 0.37 on). The list shows a part of the results.
Each sequence was assayed against Hap1 (UniProt P0CE41) (assay: PBM E-score (8-mer binding enrichment) (E-score (-0.5 to 0.5)); higher = stronger / more preferred TF binding; most listed sequences are background and not binding sites). Settings: protein concentration: 200 nM; construct: GST-DNA-binding domain.
Method in brief: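 E-scores (a modified Wilcoxon-Mann-Whitney statistic) were assigned by the Universal PBM Analysis Suite to every ungapped eight-base word pooled with its reverse complement. The input came from universal all-10-mer Agilent arrays made double-stranded by primer extension and probed with GST-tagged yeast transcription factors at about 100-200 nM. Fluorescent anti-GST detected bound protein, and masliner normalised the scans.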

Sequence of UniProt P0CE41 (P0CE41 whole entry, the tested form may be a part): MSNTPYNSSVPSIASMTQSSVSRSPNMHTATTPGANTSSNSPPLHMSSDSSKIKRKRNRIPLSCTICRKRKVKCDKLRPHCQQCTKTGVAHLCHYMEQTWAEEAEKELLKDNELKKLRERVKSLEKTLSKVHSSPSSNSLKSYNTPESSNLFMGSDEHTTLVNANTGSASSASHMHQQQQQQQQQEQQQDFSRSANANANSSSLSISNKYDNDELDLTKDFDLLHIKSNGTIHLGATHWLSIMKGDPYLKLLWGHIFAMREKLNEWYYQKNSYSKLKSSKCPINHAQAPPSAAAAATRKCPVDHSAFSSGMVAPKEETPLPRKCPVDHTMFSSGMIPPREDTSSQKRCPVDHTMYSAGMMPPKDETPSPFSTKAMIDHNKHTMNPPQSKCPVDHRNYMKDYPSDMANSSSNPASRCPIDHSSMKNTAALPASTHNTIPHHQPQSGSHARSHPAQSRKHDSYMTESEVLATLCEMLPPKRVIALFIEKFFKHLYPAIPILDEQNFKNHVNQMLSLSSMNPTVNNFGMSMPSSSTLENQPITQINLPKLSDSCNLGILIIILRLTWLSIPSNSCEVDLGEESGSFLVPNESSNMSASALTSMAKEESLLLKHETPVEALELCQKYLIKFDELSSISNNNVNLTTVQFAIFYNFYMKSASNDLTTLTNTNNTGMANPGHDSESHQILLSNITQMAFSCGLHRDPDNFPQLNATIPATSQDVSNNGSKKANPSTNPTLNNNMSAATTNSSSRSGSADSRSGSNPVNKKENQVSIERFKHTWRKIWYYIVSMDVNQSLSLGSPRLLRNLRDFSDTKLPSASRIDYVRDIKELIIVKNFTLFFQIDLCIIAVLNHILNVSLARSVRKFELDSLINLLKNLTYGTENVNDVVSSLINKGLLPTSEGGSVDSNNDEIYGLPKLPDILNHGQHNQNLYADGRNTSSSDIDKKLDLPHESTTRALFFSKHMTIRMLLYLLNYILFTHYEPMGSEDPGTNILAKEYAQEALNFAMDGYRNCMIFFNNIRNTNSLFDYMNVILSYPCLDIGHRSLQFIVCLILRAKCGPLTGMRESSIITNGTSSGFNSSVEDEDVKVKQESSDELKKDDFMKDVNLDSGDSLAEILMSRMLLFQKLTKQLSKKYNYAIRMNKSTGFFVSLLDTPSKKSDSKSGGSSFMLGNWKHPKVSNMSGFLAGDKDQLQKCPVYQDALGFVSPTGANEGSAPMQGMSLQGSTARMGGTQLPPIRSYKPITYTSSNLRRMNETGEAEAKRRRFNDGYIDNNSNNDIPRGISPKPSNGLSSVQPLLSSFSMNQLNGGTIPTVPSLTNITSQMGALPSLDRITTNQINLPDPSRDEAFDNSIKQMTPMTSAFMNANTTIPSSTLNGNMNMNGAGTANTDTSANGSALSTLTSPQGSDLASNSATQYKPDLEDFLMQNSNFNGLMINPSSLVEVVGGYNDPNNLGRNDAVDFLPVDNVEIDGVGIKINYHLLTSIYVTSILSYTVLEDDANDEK

In order of rising “PBM E-score” value:
1. CTTGCCTA  -0.386
2. CAGCCAGG  -0.342
3. CACCATAG  -0.321
4. ACGAGCAT  -0.306
5. CATCATCA  -0.299
6. CCCACTCA  -0.272
7. CATCTCAG  -0.267
8. ACGCCATA  -0.264
9. AGGGTTAA  -0.259
10. ACCTGATG  -0.242
11. AATTTGGG  -0.241
12. CTCCAGCA  -0.241
13. CTTCAAGA  -0.235
14. AGAGCGCA  -0.23
15. ACACAAGC  -0.224
16. CAAGCCTA  -0.221
17. ACAGAATG  -0.22
18. ATCCCAAT  -0.219
19. ATTGCCTA  -0.216
20. AAAGCCAG  -0.207
21. AGACTTAG  -0.2
22. TATGAGGA  -0.198
23. CTGCGTCA  -0.197
24. CCTCTAGC  -0.197
25. AGCCCTCC  -0.192
26. CATCGTAG  -0.191
27. ACTGCCAG  -0.187
28. CATAACAC  -0.182
29. CTCTCTTC  -0.178
30. ACGTTACG  -0.178
31. CTATCGAA  -0.177
32. CTTTGTAC  -0.177
33. GGTCCACA  -0.173
34. AGGTATCA  -0.171
35. TACATTGA  -0.171
36. AATACACG  -0.17
37. CTCGTCCA  -0.169
38. AAGAGGGT  -0.167
39. AAGCTCAA  -0.167
40. CATGACAA  -0.167
41. CGTTGGAC  -0.166
42. CTCTGAGC  -0.157
43. AGTCAATC  -0.153
44. CAAATGGC  -0.151
45. TGACTTAA  -0.151
46. AGACTGAC  -0.15
47. ACGAGATC  -0.15
48. ATACCCAT  -0.149
49. ATGTATAG  -0.148
50. GCTGAAGC  -0.138
51. AGTTCGTC  -0.134
52. AGGAACAA  -0.132
53. ACTGGGCT  -0.128
54. ACGATGAA  -0.126
55. GCACAAGA  -0.126
56. AGCACTCA  -0.125
57. ACCTTTAA  -0.123
58. TCTTGAAA  -0.121
59. AGTAATTG  -0.119
60. ACCAACGA  -0.116
61. CATATCAC  -0.113
62. AGGCTACT  -0.112
63. CTGAGGAA  -0.11
64. ACACTACT  -0.105
65. AACTCGAC  -0.103
66. AAAGAAGA  -0.0993
67. ATTGTAGC  -0.0987
68. AAATGAGG  -0.0982
69. ACGGTCGC  -0.0968
70. AACGCAGG  -0.0936
71. ACGCTTAC  -0.0893
72. GACATTTA  -0.0868
73. AACACGTG  -0.0868
74. AGGGTGTA  -0.0852
75. GTCATGAA  -0.0851
76. CTGTCATC  -0.0833
77. AACTTTAG  -0.0782
78. CTACTGGC  -0.0781
79. AGCAAGTA  -0.0776
80. GTTAAGGA  -0.0731
81. AAAACGCA  -0.0721
82. CGTACACG  -0.0669
83. CCAGGGTA  -0.0668
84. CATCCTAA  -0.064
85. ATGTCGAC  -0.0572
86. CGACGAAA  -0.0556
87. ATGACCAA  -0.0536
88. TATCCCAA  -0.0492
89. CCGCATGA  -0.0486
90. CACTAGCG  -0.0486
91. GACTTGGA  -0.045
92. CATGCAAA  -0.042
93. TCGACGCA  -0.0412
94. GATCTTAA  -0.0383
95. CATTAAGC  -0.0379
96. CTTTGGAC  -0.0353
97. ACGGTGGC  -0.0332
98. AGTTACGA  -0.0272
99. CCAACCTA  -0.0165
100. ACTGCGAG  -0.0121
101. GCACGCGC  -0.0115
102. CAAGGTCC  -0.0114
103. AAATTCAA  -0.00826
104. ACCGTAGA  -0.00694
105. CGACATGC  -0.00382
106. CTAGGCCA  -0.0035
107. CCTAGTTA  -0.00312
108. GATCTTAC  -5e-05
109. GTCACCAC  0.00067
110. GTAACCCA  0.00706
111. AATTCCAT  0.0073
112. AATGTGAT  0.00864
113. AACACTCG  0.012
114. GACACGTC  0.0131
115. GTCGACCA  0.019
116. GCGGGCTA  0.0199
117. AAGATCGA  0.0254
118. AAAGGACC  0.0268
119. ACGAGTCC  0.0272
120. GGTCTTGA  0.0302
121. GTACTTCA  0.032
122. ACGACACG  0.033
123. GGCCAAAA  0.0346
124. CGCGTCCC  0.0375
125. GCCTCGCC  0.045
126. ATTGTCCC  0.0458
127. CGAGGCGA  0.049
128. GAGAATAC  0.055
129. GTATATAC  0.0615
130. AATAGCGC  0.0699
131. AGATGCGG  0.0744
132. CAGCTGCG  0.0775
133. AGCTTTCG  0.0808
134. ACGACACC  0.0827
135. CTGGCCCC  0.0842
136. ACATTTGC  0.088
137. AAGGGCGG  0.0942
138. AGCGAGCG  0.0982
139. ACTAAGAA  0.102
140. CTGCTATC  0.105
141. ACAACCCG  0.107
142. ATAGTATC  0.126
143. CGGTCTGC  0.132
144. GATTACTA  0.141
145. AGCGCACC  0.149
146. GATTCACC  0.159
147. GGCCATAC  0.17
148. GATAACCC  0.172
149. CGAATCCC  0.18
150. AGGCTTCG  0.181
151. CACCGGCA  0.201
152. AATGGACC  0.209
153. AGTTCGGC  0.211
154. ACGCGGAA  0.217
155. GGCCGCTA  0.225
156. ATCTATCC  0.228
157. CCGTACTA  0.228
158. ACGCTCCG  0.24
159. ACCCGGTG  0.249
160. AACCACCG  0.253
161. GGTCTTAA  0.257
162. TCCCGAGA  0.261
163. AAGCCGCG  0.263
164. GATATTAA  0.266
165. CCCCGTCC  0.271
166. GGACCAAA  0.273
167. AATTCGGG  0.287
168. AGGCGGAC  0.288
169. ATTCTCGG  0.339
170. CCGGTATC  0.433
171. AAACCCCG  0.438
172. AAACTCCG  0.456

From the supplement of paper PMC3334620
